The chains are these.
B1: CPEB3 Ribozyme (parent)
chain: UAACAGGGGGCCACAGCAGAAGCGUUCACGUCGCAGCCCCUGUCAGAUUCUGGUGAAUCUGCGAAUUCUGCUGUAUAUCUC

Read counts are not given, so values of variants with three or more changes are uncertain.

Variants of B1 are the subject of this data set. Briefly: self-cleavage, relative activity (ratio to wild type); higher = more cleavage; in vitro, sequencing. An outline of the steps:
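After error-prone PCR and barcoding, CPEB3 ribozyme mutant libraries were transcribed with T7 RNA polymerase at 37°C for 5 hours, then given 15 min with DNase I before an EDTA stop, and they cleaved during both steps. Reverse transcription with template switching preceded Illumina sequencing. Relative activity divides a variant's cleaved/total read fraction by the unmutated ribozyme's. At least 5 reads were required per variant, and three batches were averaged.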
As to UAACAGGGGGCCACAGCAGAGGCGUUCACGUCGCAGCCCCUGUCAGGUUCUGGCGAACCUGCGAAUUCUGCUGUAUAUCUC, the self-cleavage was 0.76.
In the case of UAACAGGGGGCCACAGCAGAGGCGUUCACGUCGCUGCCCCUGUCAGAUUCUGGUGAAUCUGCGAAUUCUGCCGUAUAUCUC, the self-cleavage was determined as 0.14.
The figure for UAACAGGGGGCCACAGCAGAGGCGUUCAUGUCGCAGCCCCUGUAAGAUUCUGGUGGAUCUGCGAGUUCUGCUGUAUAUCCC is 0.16; for UAACAGGGGGCCACAGCAGAGGCGUUCGCGUCGCAGCCCCUGACAGAUUCUGGUGAGUCUGCGAAUUCUGCUGUAUAUCUC it is 0.31; for UAACAGGGGGCCACAGCAGAGGCGUUCUCGUCGCGGCCCCUGUCAGAUUCUGGUGAAUCUGCGAACUCUGCUGUAUAUCUC it is 1.19.
Consider UAACAGGGGGCCACAGCAGAGGCGUUCACGUCGCAGCCCCUGUCUGAUUCUGGUGAAUCCGCGAACUCUGCUGUAUAUCUC, for which the self-cleavage is 0.44.
The result for UAACAGGGGGCCACAGCAGAGGCGUUCACGUCGCAGCCCCUGUCAGGUUCUGGAGAAUCUGCGAAUUCUGCUGUAUAUCUC reads 0.7; that for UAACAGGGGGCCACAGCAGAGGCGUUCACGUCGCAGCCCCUGUCAGGUUCUGGCGAAUCUGCGAAUUCUGCUGUAUAUCUC, 0.62; that for UAACAGGGGGCCACAGCAGAGGCGUUCACGUCGCAGCCCCUGUCAGAUUCUGGUGAGUCUGCGGAUUCUGCUGUAUAACUC, 0.32.
Take UAACAGGGGGCCACAGCAGAGGCGUUCACGUCGCAGCCCCUGUCUGAUUCAGGUGAAUCUGCGAAUUCUGCUGUUUAUCUC: the self-cleavage was 0.09.
The result for UAACAGGGGGCCACAGCAGAGGCGUUCACGUCGCAGCCCCUGUCAGGCUCUGGUGAAUCUGCGAAUACUGCUGUAUAUCCC reads 0.33; that for UAACAGGGGGCCACAGCAGAGGCGUUCACGUCGCGGCCCCUGACAGAUUCUGGUGAAUCUGCGAAUUCUGCUGUUUAUCCC, 1.2.
UAACAGGGGGCCACAGCAGAGGCGUUCACGUCGCUGCCCCUGUCAGAUUCUGGUGAACCUGCGAAUUCUGCUGUAUAUCUC: the self-cleavage was 0.39.
UAACAGGGGGCCACAGCAGAGGCGUUCGCGUCGCAGCCCCUGUCAGAUUCCGGUGAAUCUGCGAAUUCUGCUGUAUAUCUC: the self-cleavage worked out at 0.19.
Turning to UAACAGGGGGCCACAGCAGAGGCGUUCUCGUCGCAGCCCCUGUCAGUUUCCGGUGAAUCUGCGUAUUCUGCUGUAAAUCUC, the self-cleavage stood at 0.08.
The figure for UAACAGGGGGCCACAGCAGAGGCGUUCACGUCGGAGCCCCUAACAGAUUCUGGUGAAUCUGAGAAUUCUGCAGUAUAUCUC is 0.05.
With UAACAGGGGGCCACAGCAGAGGCGUUCACGUCGCGGCCCCUGUCAGAUUCUGGCGAACCUGCGAAUUCUGCCGUAUAUCUC, the self-cleavage is 0.31.
As to UAACAGGGGGCCACAGCAGAGGCGUUCACGUCGCAGCCCCUGUCAGGUUCUGGUGAAUCUGCGAGUUCUGCUGUAUAUCUC, the self-cleavage is 0.2.
For the variant UAACAGGGGGCCACAGCAGAGGCGUUCACGUCGCAGCCCCUGUCAGAUUCUGGUGAGUCUGCGAGUUCUGCUGUAUAUUUC, the self-cleavage amounted to 0.14.
The result for UAACAGGGGGCCACAGCAGAGGCGUUCACGUCGCCGCCCCUGUCAGAUUCUGGCGAAUCUGCGAAUUCCGCUGUAUAUCUC reads 0.06; that for UAACAGGGGGCCACAGCAGAGGCGUUCACGUCGCAGCCCCUGUCAGAUUCUGGUGACUCUUCGAAUUCAGCUGUAUAUCUC, 0.17.
Take UAACAGGGGGCCACAGCAGAGGCGUUCACGUCGCAGCCCCUGUCAGGUUCUGGUGUAUCUGCGAAUUCUGCUGUAUAUCUC: the self-cleavage amounted to 0.48.
UAACAGGGGGCCACAGCAGAGGCGUUCACGUCGCGGCCCCUGUCGGAUUCUGGUGAAUCUGCGAAUACUGCUGUAUAUCUC: the self-cleavage turned out to be 0.23.
UAACAGGGGGCCACAGCAGAGGCGUUCACGUCGCAGCCCCUGUCGGAUUCUGGUGAAUCUGCGAAUUCUGCUGCAUAUCUC: the self-cleavage came out at 0.8.
As for UAACAGGGGGCCACAGCAGAGGCGUUCAUGUCACAGCCCCUGUCAGAUUCUGGUGAAUCUGCUAAUUCUGCGGUAUAUCUC, the self-cleavage is 0.08.
The figure for UAACAGGGGGCCACAGCAGAGGCGUUCAUGCCGCAGCCCCUGACAGAUUCUGGUGAAUCAGCGAAUUCUGCUGUAUACCUC is 0.05; for UAACAGGGGGCCACAGCAGAGGCGUUCACGUCGCAGCCCCUGUCGGAUUCUGGUGAAUCCGCGAAUCCUGCCGUAUAUCUC it is 0.11.
With UAACAGGGGGCCACAGCAGAGGCGUUCACGUCGCAGCCCCUGUCUGAUCCUGGUGAAUCUGCGAACUCUGCCGUACAUCUC, the self-cleavage came to 0.04.
Turning to UAACAGGGGGCCACAGCAGAGGCGUUCGCGUCGCAGCCCCUGUCAGACUCUGGUGAAUCAGCGAAUUCUGCUGUAUAUCAC, the self-cleavage was found to be 0.06.
The figure for UAACAGGGGGCCACAGCAGAGGUGUUCACGUCGCAGCCCCUGUCAGAUUCUGGUGAAUCUGCGAAUUUUGCUGUAUACCUC is 0.38.
UAACAGGGGGCCACAGCAGAGGCGUUCACGUCGCAGCCCCUGUCAGGCUCUGGUGAGUCUGCGAAUUCCGCUGUAUAUCUC: the self-cleavage was 0.
On to UAACAGGGGGCCACAGCAGAGGCGUUCACGUCGCUGCCCCUGUCAGAUUCUGGUGAAUCUGCGAAUUCAGCUGUAUAUCUC, for which the self-cleavage amounted to 0.1.
As to UAACAGGGGGCCACAGCAGAGGCGUUCACGUCGCAGCCCCUGUCUGAUUCUGGUGAAUCUGCGAACUCUGCUGUAUAUCCC, the self-cleavage came to 0.21.
Consider UAACAGGGGGCCACAGCAGAGGCGUUCGCGUCGCAGCCCCCGUCAGAUUCUGGUGAAUCUGCGAAUUCAGCUGUAUAUCUC, for which the self-cleavage is 0.28.
On to UAACAGGGGGCCACAGCAGAGGCGUUCACGUCGCAGCCCCUGUCAGGUUCUGGUGAAUCUGCGGAUCCUGCUGUAUAUCUC, for which the self-cleavage stood at 0.05.
As for UAACAGGGGGCCACAGCAGAGGCGUUCACGUCGCUGCCCCUGUCAGAUGCUGGUGAAUCCGCGAAUUCUGCGGUAUUUCUC, the self-cleavage turned out to be 0.02.
Turning to UAACAGGGGGCCACAGCAGAGGCGUUCGCCUCGCAGCCCCUGUCAGAUUCUGGUGAAUCCGCGAUUUCUGCUGUAUAUCUC, the self-cleavage is 0.06.
For UAACAGGGGGCCACAGCAGAGGCGUUCACGUCGCGGCCCCUGUCAGAUUCUGGUGAAUCUGCGAAUUCGGCUGUACAUCUC, the self-cleavage came out at 1.1.
On to UAACAGGGGGCCACAGCAGAGGCGUUCACGUCGCGGCCCCUGUCAGAUUCUGGUGAGUCUGCGAAUUCUGCCGUAUAUCUC, for which the self-cleavage was determined as 1.17.
With UAACAGGGGGCCACAGCAGAGGCGUUCACGUCGCGGCCACUGUCAGAUACUGGUGAAUCUGCGAAUUCUGCUGUACCUCUC, the self-cleavage was 0.04.
Turning to UAACAGGGGGCCACAGCAGAGGCGUUCACGUCGCAGCCCCUGUCAGAUUCUGGUGAAUCUGCGAUUUCCGCUGUAUAUCUC, the self-cleavage is 0.29.
On to UAACAGGGGGCCACAGCAGAGGAGUUCUCGCCGCAGCCCCUGUCAGAUUUUGGUGAAUCCGCGAAUUCUGCUGUAUGUCUC, for which the self-cleavage came to 0.11.
The figure for UAACAGGGGGCCACAGCAGAGGCGUUCACGUCGCGGCCCCUGUCAGAUUCUGGCGAAUCUGCCAAUUCUGCUGUAUAUCUC is 1.19.
As for UAACAGGGGGCCACAGCAGAGGCGUUCACGUCGCAGCCCCUGUCGGAUUCUGGUGAAUCUGCGAGCUCUGCUGUAUAUCUC, the self-cleavage was found to be 0.2.
With UAACAGGGGGCCACAGCAGAGGCGUUCACGUCGCAGGCCCUGUCAGAUCCUGGUGAAUCUGCGAAUUCUGCCGUAUUUCUC, the self-cleavage was determined as 0.25.
Turning to UAACAGGGGGCCACAGCAGAGGCGUUCACGUUGCAGCCCCUGUCUGAUUCUGGUGAAUCUGCGAAUUCUGCCGUAUAUCUC, the self-cleavage worked out at 0.15.
Consider UAACAGGGGGCCACAGCAGAGGCGUUCACGUCGCAGCCCCUGUCAGGUUCUGGUGAAUCCGCGAAUUCUGCUGUAUAUCUC, for which the self-cleavage stood at 0.37.
For the variant UAACAGGGGGCCACAGCAGAGGCGUUCACGUCGCAGCCCCUGUCAGAUUCUGGUGUAUCUGCGAGUUCUGCUGUAUGUCUC, the self-cleavage is 0.15.
The figure for UAACAGGGGGCCACAGCAGAGGCGUUCACGUCGCAGCCCCUGUCGGAUUCUGGUGAAUCUGCGAAUUCUGCUGUAUAUCCC is 0.3; for UAACAGGGGGCCACAGCAGAGGCGUUCACGUCGCAGCCCCUGUCUGAUUCUGGUGAACCUGCGAAUUCUGCUGAAUAUCUC it is 0.12.
The figure for UAACAGGGGGCCACAGCAGAGGCGUUCACGUCGGAGCCCCUGUCAGAUUCUGGUGGAUCUGCGAAUUCUACUGUACAUCUC is 0.17; for UAACAGGGGGCCACAGCAGAGGCGUUCACGUCGCAGCCCCUGUCGGAUUCUGGUGAAUCUGCGAAUUCUGCUGUGUAUCUC it is 0.44; for UAACAGGGGGCCACAGCAGAGGUGUCCACGUCGCAGCCCCAGUCAGAUUCUGGUGAAUCUGCGGAUUCUGCUGUAUAUCUC it is 0.1.
As to UAACAGGGGGCCACAGCAGAGGCGUUCACGUCGCAGCCCCUGUCGGAUGCUGGUGGAUCUGCGAAUUCAGCUGUGUAUCUC, the self-cleavage came out at 0.22.
The figure for UAACAGGGGGCCACAGCAGAGGCGUUCACGUCGCGGCCCCUGCCAGAUUCUGGUGGAUCUGCGAAUUCUGCUGUAUGUCUC is 0.73; for UAACAGGGGGCCACAGCAGAGGUGUUCACGUCGCAGCCCCUGUCAGAUUCUGGUGAAUCUGAGAAUUCUGCUGUAUAUCUC it is 0.26.
The figure for UAACAGGGGGCCACAGCAGAGGCGUUCUCGUCGCAGCCCCUGUCGGAUCCUGGUGAAUCUGCGAAUUCUGCCGUAUAUCUC is 0.07.
The figure for UAACAGGGGGCCACAGCAGAGGCGUUUACGUCGAAGCCCCUGUCAGAUUCUGGUGAAUCUGCGAAUACUGCUGUAUAUCUC is 0.05.
For the variant UAACAGGGGGCCACAGCAGAGGCGUUCACGUCGCAGCCCCUGUCAGAUUCUGGUGAAUCUGCGAGUUCUGCAGUAUAUCAC, the self-cleavage stood at 0.07.
Regarding UAACAGGGGGCCACAGCAGAGGCGUUCGCGUCGCAGCCCCUGCCAGAUUCUGGUGAAUCUGCGAAUUCAGCCGUAUAUCUC, the self-cleavage was 0.12.
For the variant UAACAGGGGGCCACAGCAGAGGCGUUCACGUCGCUGCCCCUGUCAGAUUCUGGUGGAUCUGCGAAUUCCGCUGUAUAUCUC, the self-cleavage was 0.12.
The figure for UAACAGGGGGCCACAGCAGAGGCGUUCACGUCGCAGCCCCUGUCAGAUUCUGGUGGAUCUGCGAAUUCUGCCGUAUAUCUC is 0.47; for UAACAGGGGGCCACAGCAGAGGCGUUCUCGUCGCAGCCACUGUCACAUUCUGGUGAGUCUGCGAAUUCUGCUGUAUAUCUC it is 0.07.
For the variant UAACAGGGGGCCACAGCAGAGGCGUUCAAGUCGCAGCCCCUGUCGGGUUCUGGUGAGUCUGCGAGUUCUGCUGUAUAUCUC, the self-cleavage is 0.02.
Take UAACAGGGGGCCACAGCAGAGGCGUUCACGUCGCAGCCCCUGUCUGAUUCUGGUGAAUCAGAGAAUUCUGCUGUAUAUCUC: the self-cleavage was found to be 0.12.
For UAACAGGGGGCCACAGCAGAGGCGUUCUCGUCGCAGCCCCCGUCAGAUUCUGGUGAAUCUGCGAAUUCUGCUGUAUACCUC, the self-cleavage is 0.37.
Turning to UAACAGGGGGCCACAGCAGAGGCGUUCACGUCGCAGUCCCUGGCAGAUUCUGGUGGAUCUGCGGAUUCUGCUGUAUGUCUC, the self-cleavage stood at 0.37.
As to UAACAGGGGGCCACAGCAGAGGCGUUCGCGCCGCAGCCCCUGACAGAUUCUGCUGAAUCUGCGGAUUCUGCUGUAUACCUC, the self-cleavage turned out to be 0.03.

Source of the values: the RNAGym collection of RNA variant scans (doi:10.1093/nar/gkz1192).
